Data: article PMC12136788
This is one part of the list.

T1: UNK ZnF1-3 (human, UniProt Q9C0B0 31-174)
T1 sequence: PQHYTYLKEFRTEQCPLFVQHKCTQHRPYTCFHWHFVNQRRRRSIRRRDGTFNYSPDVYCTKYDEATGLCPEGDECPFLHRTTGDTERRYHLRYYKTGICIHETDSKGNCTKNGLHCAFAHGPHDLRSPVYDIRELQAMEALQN

B1: chr1:109605286:109605287:-_ENSG00000197780_ENST00000461096|hu_mus|motif|central (ssRNA)
RNA: GGGAGUUCUACAGUCCGACGAUCAAGUUUCAGAGUAACAUUCAGUAACCUCUUUAAAUGCAAUUAUCCUUAUUAUAAGCGGAGCAGAAUAAUAAUUUAAUACCGUAAGUGAACUACACACAAAGCCUGAACCGCGAAAAUGGUCAACAGAGGAUUGAGCAUCA
B2: chr5:128448638:128448639:+_ENSG00000066583_ENST00000173527|hu_mus|hu_hu_hu_mus_False|8_78 (ssRNA)
RNA: GGGAGUUCUACAGUCCGACGAUCGGCACUCGCCUUAAUUAGGUUCUGAAUUUCCUUGAAUUUUGGAUGGUCUUUGUCAGCCACCAGCUGUAGGAGGACAGCCUCACUAGUGGUCACGAUGAUCCCAGUUCGAGCGAGACGCUCCAACAGAGGAUUGAGCAUCA
B3: chr2:27656205:27656206:+_ENSG00000115216_ENST00000379852|hu_hu|motif|central (ssRNA)
RNA: GGGAGUUCUACAGUCCGACGAUCACUGAUGUCAGGCCAGGAGCUGAAGAUGAGGAUUCUACCUUUGGGUCUGAGCCACUGCGGAGUACUGUCUGGGACUCCCCCUCCGACAUGCUGGAAGGAACACUCAGGCCUCCCGACUCCCAACAGAGGAUUGAGCAUCA
B4: chr14:78183846:78183847:+_ENSG00000119705_ENST00000557342|hu_hu|hu_hu_hu_mus_False|18_48 (ssRNA)
RNA: GGGAGUUCUACAGUCCGACGAUCUCUCAGAAAUCUUUCUUCAUCAGAUGUUUGAGCUCCGUGCAAAGCCUUUGCUCUUUGAGCUUGAACCUGGACCUAUGGGAGGGAAAGCACUGUAUUUUCCUGUAAUUUUUUUUUUAAAGACAACAGAGGAUUGAGCAUCA
B5: chr11:120326911:120326912:-_ENSMUSG00000057594_ENSMUST00000124970|mus_hu|FALSE|FALSE (ssRNA)
RNA: GGGAGUUCUACAGUCCGACGAUCACUUUGGGUUAUUCUGCCCCUGUGAGAAGAAACUAUUGGCAGCAAAGCCAUACUGCCCUCUGCCACCUCUCCCCAGCUCAGGCCAGCUGCGCCUCUGCCGUGCAGUCAAUCGUUGGCUCUCAACAGAGGAUUGAGCAUCA
B6: chr4:142145789:142145790:+_ENSG00000109445_ENST00000262990|hu_mus|FALSE|FALSE (ssRNA)
RNA: GGGAGUUCUACAGUCCGACGAUCACACUGUGCACAAAUUGGUAACUUCUGAACAGAAUUACAAAAAUAGCAAAAUGCUCUAUUCUUCUGCCGCCUCUGACAUUUGUCGCAUUCCAUUGAAGCAUUGCAUGGGUGUUUGGCUAGCAACAGAGGAUUGAGCAUCA
B7: chr9:98468509:98468510:+_ENSMUSG00000032458_ENSMUST00000035033|mus_mus|motif|central (ssRNA)
RNA: GGGAGUUCUACAGUCCGACGAUCAAACGUCUUCACCAGUGUCUGAGUUUCAUGAUUCCAAACACACACACUGCCAUUGUAAAGACGGGCCAACAUCCAUGGCUCUGUGGGAUGCAAAUCCACGCUCUUAACUCGGUCAGACCUCAACAGAGGAUUGAGCAUCA
B8: chr4:17845017:17845018:+_ENSG00000109805_ENST00000514176|hu_mus|hu_hu_hu_mus_False|8_98 (ssRNA)
RNA: GGGAGUUCUACAGUCCGACGAUCGCUCUCUUAACUUGAUCUUCAUUUAAGGAACUCUGCAAGGUUAAGUUUACUUUUCUGUAGCGCAGCUGUUUUGGCUCGUCUGGGUAAUCUCAUCUUCAUUUCUAUUCUGGUUCCAUGAUCCAACAGAGGAUUGAGCAUCA
B9: 53326365_53327111_1920_CDS_ENSG00000073712_ENST00000341590|human|control|control (ssRNA)
RNA: GGGAGUUCUACAGUCCGACGAUCGGCAUCCAUCCGAAUCAGUCUGUUGUAUGCAAUUCCAAUAAGUUCUUCUUUUUUGCCCCCUUGGAACCUUGCAAUGAAGUGAGUGAUGCCAAAUUCAGGUAGUGACUGCCAAGCUUGAAUCAACAGAGGAUUGAGCAUCA
B10: chr8:95500983:95500984:-_ENSG00000164944_ENST00000437199|hu_hu|hu_hu_hu_mus_True|18_78 (ssRNA)
RNA: GGGAGUUCUACAGUCCGACGAUCAGAACACAUCUAUCGAGUAAAGGACCGUACAUGGACGACCUCUCCACUGCCUCCACUAACAAACUUUCCUCUCGAGCCUCCACUGCCGCUAUUUUGCACUAGCCAGGACGGUCCCAGGCCCAACAGAGGAUUGAGCAUCA
B11: chr13:55314840:55314841:+_ENSMUSG00000021488_ENSMUST00000099490|mus_mus|FALSE|FALSE (ssRNA)
RNA: GGGAGUUCUACAGUCCGACGAUCAUCACUUUUUGCAGGGUCUUGAAAGGAUUCUGAUCCAUCAGCAGACCCACUUAAAUAUUCUACAUUGAUCAUGGAGGCCAAAUCCUGUAGUCUCCGCAGUGGAAUGUAACAAGAUGGAGACAACAGAGGAUUGAGCAUCA
B12: chr10:61154552:61154553:+_ENSMUSG00000020088_ENSMUST00000020285|mus_hu|FALSE|FALSE (ssRNA)
RNA: GGGAGUUCUACAGUCCGACGAUCGAGCUCUGGCCUCCAUAUCUGUUCAUAAUUUUAUGAAGUAUCUAAAUGUCAUUCAUUAGUUUAAAAAAAAAAAAGAAUAGAAAACUCUGGACCAAGUAAAUUGUGAACUCAAAAAGUUAGCAACAGAGGAUUGAGCAUCA
B13: chr4:115894766:115894767:+_ENSMUSG00000028698_ENSMUST00000030464|mus_hu|mus_mus_mus_hu_True|58_108 (ssRNA)
RNA: GGGAGUUCUACAGUCCGACGAUCUUCACACGGAAAUUGUACUUCGGGUUUUCCAACGGCCAGUACCAGUCCGGCCAACUACUAGGAACAGGGUCCUCCCCCUCUCUCCUACAGAACACAACAAAAUGCCCCCGAACUUUCAAGCAACAGAGGAUUGAGCAUCA
B14: chr2:32989838:32989839:-_ENSMUSG00000038831_ENSMUST00000042615|mus_hu|FALSE|FALSE (ssRNA)
RNA: GGGAGUUCUACAGUCCGACGAUCUGUUGAGCCUUUUGAUGCCUUUCUAGAGGAAUCUAUGCACAGGAUUUAUACUCAGGACUAGGAGAGAGGCAAAGUCUUGCCUAAGGAGAUAGGUGUGGUGGGGACUGUUUGUUGAGUGGUCAACAGAGGAUUGAGCAUCA
B15: chr9:136895555:136895556:-_ENSG00000169925_ENST00000303407|hu_mus|FALSE|FALSE (ssRNA)
RNA: GGGAGUUCUACAGUCCGACGAUCACCGUUUUUUUUUUUUUUUUACUCUGUGGUGUUGAGGCCGGCAUUGCAAAAAACAAGCUAAACUACUUACAAUGGACUCAUUUUCAGUAACUGACAUUUACAGGAAUAUACUAGAAACGGCAACAGAGGAUUGAGCAUCA
B16: chr1:66463027:66463028:+_ENSMUSG00000015222_ENSMUST00000114013|mus_mus|mus_mus_mus_hu_True|28_48 (ssRNA)
RNA: GGGAGUUCUACAGUCCGACGAUCUUUUCUUUCAGGAGUGGAAAUUCUGCCUCUCCCGGUUUUAAAAGGCUUUUCUUUUCUAUGUUUCUCGAGAGACGAUCUCCGAGCAUCCUUCUCAGCUUUCUCCUCUUUAGGAAUAGUUUCCAACAGAGGAUUGAGCAUCA
B17: chr10:126435856:126435857:+_ENSMUSG00000078429_ENSMUST00000105256|mus_hu|motif|central (ssRNA)
RNA: GGGAGUUCUACAGUCCGACGAUCAGUGGAAACCCUUACCUGACCCUUUUCCAAACUGGUCCUGUGUCCAAAGCUCCCCCGGUGAGAGGGACACGAACAUCAGGCUUUUGAUUUAGAAGCCCAAUCAGAGAGACACACUGUGUCCAACAGAGGAUUGAGCAUCA
B18: chr18:43482294:43482295:-_ENSMUSG00000024501_ENSMUST00000121805|mus_mus|motif|central (ssRNA)
RNA: GGGAGUUCUACAGUCCGACGAUCUGACAGAGUUUUGCCUAGCAUUUGAGAGGCCCUGGACUCAAUUGUCCAGCUCGGCAAAAUGAAAUAAACAGAAAUUCCCCACCUCAAAAAAAAAAAACAACAACAACAACAACAAAAAACCAACAGAGGAUUGAGCAUCA
B19: chr1:182792527:182792528:+_ENSMUSG00000038806_ENSMUST00000038091|mus_mus|FALSE|FALSE (ssRNA)
RNA: GGGAGUUCUACAGUCCGACGAUCCGAAGUCCCAGGAGCAUCCUCACUGUCAUCCUCUGAGCUGUCCUCUGAGCUUCCAGUACUGGACCCCUCGGCAGCCUCCAGCCCAUCCAUGCCCAACCAAAAGCAUUUCCUUUUCCUUUUCAACAGAGGAUUGAGCAUCA
B20: 9950424_9950544_840_CDS_ENSG00000101558_ENST00000340541|human|control|control (ssRNA)
RNA: GGGAGUUCUACAGUCCGACGAUCUGAUAGCUUCAUCAUUUCUCCCUGAAGUCUUUUACACUCUUCCAUUAGUUUCCUUGUUUCGGUAUCAUUAAGUGAAACACUGUGUGGUUUUGGCAUAGGUCCAUCUUGCUUAGAUGCAUUCAACAGAGGAUUGAGCAUCA
B21: chr4:57860909:57860910:+_ENSG00000047315_ENST00000314595|hu_hu|FALSE|FALSE (ssRNA)
RNA: GGGAGUUCUACAGUCCGACGAUCAUCUGUCAAGCCAUUCAAAAGGCAGUAAGUUGACCGCAACAUAAUUGGAAUUUUUCCUAUAAAAGUUUUCUGAUGCUGAGUCUGAAGUUGUUCUUCACCUUCUUUAAUGACUGUUUUUGUCAACAGAGGAUUGAGCAUCA
B22: chr16:13782116:13782117:+_ENSMUSG00000022682_ENSMUST00000023363|mus_mus|FALSE|FALSE (ssRNA)
RNA: GGGAGUUCUACAGUCCGACGAUCGACUUCUGUCACAGUUCCGCCAAACCGAACAGUUUUUUUCGGAGGAGAAUUGAAGAAAUCGCUCUCUAACGCGAGCAUAUCGGAAAGCCCAGUCCGCGACGCACUCAGCGUGGCAGAGGCCAACAGAGGAUUGAGCAUCA

Target: T1, UNK ZnF1-3
Assay: nsRBNS (natural sequence RNA bind-n-seq); RBNS binding buffer (assumed for nsRBNS): 25 mM Tris pH 7.5, 150 mM KCl, 3 mM MgCl2, 0.01% Triton X-100, 500 ug/ml BSA, 20 U/ml SUPERase-In, 4 C; UNK is unkempt and MSI1 is Musashi-1; names of the RNAs are library labels; protein concentration not given here; high values mean tight binding

Compared with B1, B2 is lower in binding signal: 1.15 enrichment R for the first, 0.694 enrichment R for the second.

Compared with B3, B4 is higher in binding signal: 0.704 enrichment R for the first, 1.65 enrichment R for the second.

First: B5
Second: B6
The binding signal of the first is lower: 0.595 enrichment R for the first, 1.15 enrichment R for the second.

Going from B7 to B8, the binding signal falls from 0.561 enrichment R to 0.405 enrichment R.

First: B9
Second: B10
The binding signal of the first is lower: 1.07 enrichment R for the first, 1.62 enrichment R for the second.

Going from B11 to B12, the binding signal rises from 0.694 enrichment R to 1.65 enrichment R.

Compared with B13, B14 is higher in binding signal: 0.946 enrichment R for the first, 1.3 enrichment R for the second.

Going from B15 to B16, the binding signal falls from 1 enrichment R to 0.525 enrichment R.

Compared with B17, B18 is higher in binding signal: 0.921 enrichment R for the first, 3.24 enrichment R for the second.

Going from B19 to B20, the binding signal falls from 0.804 enrichment R to 0.497 enrichment R.

First: B21
Second: B22
The binding signal of the first is higher: 0.922 enrichment R for the first, 0.622 enrichment R for the second.
